Test results published in PubChem BioAssay AID1508623 (National Center for Advancing Translational Sciences (NCATS), 2021).
In all, about 48,000 compounds went through this assay and about 450 (0.94%) were called active. Not shown: some 19% with an inconclusive outcome. The call rests on the fitted dose curve; in most records, active means well fitted inhibition curve with a large enough effect; inconclusive means small, poorly fitted or top-dose-only effect; inactive means no such curve, though single readings can be large or run the other way. The list shows a part of the results.

assay: Primary qHTS for Identification of Small Molecule Inhibitors of Huntingtin Promoter Activity; conditions: HEK293 HTT promoter firefly luciferase reporter (activity 0% = vehicle and -100% = no light), 24 h; series mostly up to 57.5 µM; activity change, negative = inhibition: at the top concentration; further: nearly all actives have a fitted effect of over 50% in size
Procedure, shortened: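 Firefly luciferase signal from promoter-reporter HEK293 cells was scaled between vehicle (0%) and zero RLU (-100%). Compounds were tested at final concentrations of up to 57.5 uM over 24 h at 37 degrees C. PTC124 at 50 uM final served as control inhibitor.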

Activity change, negative = inhibition, inactive:
CCC(Sc1ncccc1C(=O)Oc1ccccc1Cl)C(=O)Nc1ccccc1OC (stereo not drawn) -26.6%
Cc1ccc2c(=O)c(C(=O)c3ccccc3)cn(CC(=O)Nc3ccc(C)c(Cl)c3)c2n1 -1.9%
CCCNC(=O)c1ccc2c(c1)nc(C)n2-c1cccc(C)c1 -4.18%
Cc1nn(C)c2c1c(C(F)(F)F)cc(=O)n2C(C)C(=O)NCCC(C)C (stereo not drawn) -6.31%
CCOc1ccccc1NC(=O)c1ccc2c(c1)CCN2S(C)(=O)=O -5.16%
COc1cc(C2c3c(-c4cc(C)ccc4O)n[nH]c3C(=O)N2Cc2cccnc2)cc(OC)c1OC (stereo not drawn) 16.7%
CCn1cc2nc(SCC(=O)Nc3cc(OC)ccc3OC)n(Cc3ccc(Cl)cc3)c(=O)c2n1 -23.3%
Cc1ccc(-n2c(SCC(=O)N3CCc4ccccc43)nc3c([nH]c4ccccc43)c2=O)cc1 9.45%
O=C(Nc1ccc(OC(F)(F)F)cc1)c1cc2c(=O)n3ccccc3nc2s1 -12.2%
CCS(=O)(=O)N1CCc2cc(C(=O)Nc3cc([N+](=O)[O-])ccc3C)ccc21 -15.5%
O=C(CCn1c(=O)c2cccn2c2cccnc21)N1CCN(c2ccc(F)cc2)CC1 -9.59%
COc1ccc(C(=O)Nc2ccc3nc(SCC(=O)N4CCCC4)sc3c2)cc1 -9.47%
CC(C)(C)CC(C)(C)c1ccc(O)c(Cc2ccc(Cl)cc2Cl)c1 0.0198%
CCCC(=O)Nc1nnc(SCc2cc(=O)n3ccccc3n2)s1 -1.09%
O=C(NC1CCCCC1)c1ccc2c(c1)N(Cc1ccccc1F)C(=O)c1ccccc1S2 6.25%
Cn1c(=O)c(=O)n(C)c2cc(S(=O)(=O)N3CCCC3C(=O)Nc3cccc(F)c3)ccc21 (stereo not drawn) 2.21%
Cc1ccn2c(Nc3ccccc3C)c(-c3ccncc3)nc2c1 17.4%
Cc1ccc(CNC(=O)C2CCN(Cc3nc(-c4ccccc4C)oc3C)CC2)cc1 -6.57%
CN1CCN(c2c(F)cc3c(=O)c(C(=O)O)cn4c3c2OCN4C)CC1
CCN(CCN(C)C)C(=O)Cn1ncc2c([nH]c3ccc(C)cc32)c1=O 6.86%
CCCCn1c(CN2CCN(c3ccc(OC)cc3)CC2)nc2c1c(=O)[nH]c(=O)n2C -19%
Cc1cccc(NC(=O)CSc2nnc(CNC(=O)c3cccc(C)c3)n2-c2ccccc2)c1 -10.3%
COc1ccc(-c2noc(CN(C(=O)c3ccccc3Cl)C(C)C)n2)cc1 -24.7%
Cc1ccccc1Cn1c(-c2cccs2)nc2ccccc21 -14.8%
COC(=O)c1cc(Cl)c(NC(C)=O)cc1OC 15.3%
Cc1ccc2nc(CSc3nnc(NC(=O)CC(C)C)s3)cc(=O)n2c1 -1.43%
CCOc1ccc(CNC(=O)CCC(=O)N2Cc3ccccc3Oc3ncccc32)cc1 3.57%
Cc1ccc(Cn2c(CN3CCC(C(=O)NCc4cccnc4)CC3)cc3ccccc32)cc1 -4.84%
CC(=O)c1cccc(NC(=O)CCS(=O)(=O)c2ccc3c(c2)n(C)c(=O)c(=O)n3C)c1 -16.5%
COc1ccc(OC)c(NC(=O)CSc2c3c(nc4cc(Cl)ccc24)CCCC3)c1 3.52%
NC(=O)CSc1nc2cc3c(cc2c(=O)n1CCCCCC(=O)NCc1ccc2c(c1)OCO2)OCO3 -9.65%
O=C(Nc1ccccc1C(F)(F)F)C1(S(=O)(=O)c2ccc(Cl)cc2)CC1 -7.19%
CN1CC(=O)N(CC(=O)Nc2cccc(C#N)c2)c2ccccc2C1=O 16.7%
COc1ccc(OC)c(NC(=O)C2CCCN(S(=O)(=O)c3ccc4[nH]c(=O)ccc4c3)C2)c1 (stereo not drawn) -9.6%
COc1ccc(-c2cn3c(n2)sc2cc(C(=O)NCC(C)c4ccccc4)ccc23)cc1 (stereo not drawn) 4.51%
Cc1c(Cl)cccc1NC(=O)Nc1nnc(N(C)C2CCCCC2)s1 -2.46%
Cc1ccc(CCNC(=O)c2cnc3c(C)cccn3c2=O)cc1 0%
Cc1ccc(C(=O)c2cn(Cc3cc(C)ccc3C)c3nc(C)ccc3c2=O)cc1 -29.2%
CCCCCCNC(=O)CCc1c(C)nc2nc(-c3cc(OC)cc(OC)c3)nn2c1C -16.2%
CCOCCCNC(=O)C(NC(=O)C1CCC(C)CC1)C(C)C (stereo not drawn) -4.21%
CN(C1CCCCC1)S(=O)(=O)c1ccc2c(c1)c(=O)c(C(=O)N1CCN(c3ccc(F)cc3)CC1)cn2C -12.4%
CCc1ccccc1NC(=O)c1nn(-c2ccc(C)cc2)c(=O)c2c1c1ccccc1n2C -4.55%
CC(C)c1cc(C(=O)NCc2ccc(F)cc2)no1 55.4%
CCS(=O)(=O)n1nc(-c2ccco2)nc1NCc1ccc(C(C)C)cc1 0.937%
CC(=O)Nc1ccc(NC(=O)C(NC(=O)C2CCC(C)CC2)C(C)C)cc1 (stereo not drawn) -19.7%
CN(C)CCOc1ccc(C(=C(CCCl)c2ccccc2)c2ccccc2)cc1 1.07%
Cc1ccc(-n2cnc3cc(C(=O)NC4CCCCCC4)ccc32)c(C)c1 -29.5%
CCc1ccc(Cn2nnc3c(=O)[nH]c(C4CCCN(C(=O)c5cccc(Cl)c5)C4)nc32)cc1 (stereo not drawn) -19.6%
O=C(Nc1ccc(F)cc1)c1ccc(CN2CC(=O)N3CCCCC3C2=O)cc1 (stereo not drawn) -22%
Cc1cc(C)cc(NC(=O)Cn2nc(N3CCN(c4ccccc4)CC3)ccc2=O)c1 -13.7%
CC(C)c1ccc(OCC(=O)Nc2cc(-c3ccccc3)no2)cc1 2.94%
COc1ccc(S(=O)(=O)NCCc2sc(-c3cccnc3)nc2C)cc1OC 0.682%
COc1cc(CN(C(=O)c2ccccc2Br)c2ccccn2)cc(OC)c1OC -16.2%
CCc1ccc(NC(=O)c2cccc(N3CCCS3(=O)=O)c2)cc1 -23.1%
CCOC(=O)c1ccc(N)cc1 -17%
CCN1CCSc2ccc(C(=O)NCc3ccc(F)cc3)cc21 -17.8%
CCN(CC)CCOC(=O)C(c1ccccc1)c1ccccc1 -0.377%
OC(CCCN1CCCCC1)(c1ccccc1)c1ccccc1 -8.61%
CCc1cccc(NC(=O)Cc2nc(-c3ccc(OC)cc3)no2)c1 -14.6%
COCCCNC(=O)c1nn(C)c2c1CS(=O)(=O)c1ccccc1-2 -12.2%
COc1ccc(CNC(=O)CC2N=C3c4ccccc4N=C(SCC(=O)Nc4ccc(C(C)C)cc4)N3C2=O)cc1 (stereo not drawn) 3.28%
COc1ccc(-c2cn3c(n2)sc2cc(C(=O)NC(C)C45CC6CC(CC(C6)C4)C5)ccc23)cc1 (stereo not drawn) 33.2%
COCc1cc(C)nc2sc3c(c12)NC(c1ccccc1C(=O)O)N(c1cccc(C(F)(F)F)c1)C3=O (stereo not drawn) 1.38%
COc1cc([N+](=O)[O-])ccc1NC(=O)c1nc2ccccc2n(C)c1=O 7.52%
Cc1ccc(S(=O)(=O)c2nc(-c3cccc(Br)c3)oc2N2CCCCCC2)cc1 -16.7%
O=C(CSc1nnc2[nH]c(=O)cc(-c3ccccc3)n12)Nc1ccc(OC(F)(F)F)cc1 18.7%
COc1cccc(N2CCN(C(=O)CCSCc3ccccc3F)CC2)c1 -25.1%
CCN(CC)c1cc(C)c2cc(NC(=O)c3cc(OC)cc(OC)c3)ccc2n1 -3.6%
CCOC(=O)C1CCN(S(=O)(=O)c2cc3c4c(c2)C(C)C(=O)N4CCC3)CC1 (stereo not drawn) -20.2%
Cc1cc(=O)n(Cc2c(F)cccc2Cl)c2c1c(C)nn2-c1cccc(F)c1 2.24%
O=C(Cc1ccc(Cl)cc1)NCC(c1cccs1)S(=O)(=O)c1ccccc1 (stereo not drawn) -24.1%
CCCSc1ncc(Cl)c(C(=O)Nc2sc(C(C)=O)c(C)c2C(=O)OCC)n1 14.9%
Cc1ccc(S(=O)(=O)N(CC(=O)Nc2ccc(F)cc2F)Cc2ccc(F)cc2)cc1 -28.3%
CC(=O)Nc1ccc(NC(=O)c2cc(CN3CCCC3)on2)cc1 15.8%
Cc1ccc(C)c(NC(=O)CSc2nnc3[nH]c(=O)cc(-c4ccccc4)n23)c1 18.9%
CCOc1ccc(NC(=O)Cn2c(=O)n(CC3CCC(C(=O)NCCc4ccccc4)CC3)c(=O)c3ccccc32)cc1 (stereo not drawn) -8.54%
COc1ccc(NC(=O)CSc2oc(-c3ccco3)nc2S(=O)(=O)c2ccc(C)cc2)c(OC)c1 -23.1%
Cc1c(CNC(C)CCc2ccccc2)c(C(=O)O)c(C)n1Cc1ccc(F)cc1 (stereo not drawn) -26.8%
CN(C)S(=O)(=O)c1ccc2c(c1)N(CC(=O)Nc1cccc(C(F)(F)F)c1)C(=O)CS2 -35%
CC(C)(C)OC(=O)N1CCC(N2CCN(Cc3ccccc3)C(=O)C2=O)CC1 -11.8%
CCOC(=O)c1ccccc1NC(=O)NCc1c(-n2cccc2)sc2c1CCCC2 -26.9%
Clc1ccc(-c2cc3ncc4c(n3n2)-c2ccccc2OC4)cc1 21.8%
O=C(Nc1ccccc1-c1nc2ccccc2s1)c1ccc(F)cc1 -7.01%
COc1ccc(CCNc2nc3c(-c4cccc(C(F)(F)F)c4)nnn3c3ccccc23)cc1OC -7.07%
CCOc1ccc(NC(=O)c2cc3cc(C)ccc3n2C)cc1 -7.37%
COc1ccccc1NC(=O)CSc1oc(-c2ccco2)nc1S(=O)(=O)c1ccc(C)cc1 -25.7%
CCOc1ccc(NC(=O)c2oc3ccccc3c2NC(=O)C(C)(C)C)cc1 -15.7%
CCOc1ccc2nc(N3CCCC(C(=O)Nc4ccc(OC)cc4)C3)sc2c1 (stereo not drawn) 44.2%
COc1ccc(CCNC(=O)c2c(O)nc3ccccn3c2=O)cc1OC -11.6%
Cc1ccc(C(=O)Nc2nnc(S(=O)(=O)N(C)Cc3ccc(Cl)cc3)s2)cc1 11.2%
COc1cc(Nc2ncc3c(n2)CCN(Cc2ccc(OC(C)C)c(OC)c2)C3)cc(OC)c1 -34.1%
COc1ccc(NC(=O)c2csnn2)cc1Cl 44.1%
CCc1nn2c(=O)cc(COC(=O)c3ccc(NC(=O)COc4ccccc4C)cc3)nc2s1 -19.4%
Cc1ccc(NC(=O)N2CC3CCCN3c3ccccc32)cc1Cl (stereo not drawn) -28%
O=C(Cn1ncc2c3ccccc3n(Cc3ccccc3F)c2c1=O)N1CCCCCC1 -7.64%
CCN1CCN(c2nnc(-n3cccc3C(=O)NCc3ccccc3OC)s2)CC1 -4.1%
COc1ccc(NC(=O)C2CCN(C3=NS(=O)(=O)C(c4ccc(C)c(C)c4)=C3C)CC2)c(OC)c1 -13.4%
Cc1ccccc1OC(=O)c1cc(-c2ccc3c(c2)OCCO3)on1 -5.57%
